{"source": "patent US20050020580A1", "about": "“Materials and methods for the prevention or treatment of apoptosis and apoptosis-related diseases and conditions” (priority 2002, published 2005)", "tested_on": "Jurkat T cells", "experiment": "Apoptosis by selective PTPC agonists (ATR, STS, PK11195) in Jurkat T cells", "settings": "ANT agonist ATR, NFV pretreated"}
{"smiles": "Cc1c(O)cccc1C(=O)N[C@@H](CSc1ccccc1)[C@H](O)CN1C[C@H]2CCCC[C@H]2C[C@H]1C(=O)NC(C)(C)C", "note": "[NFV, nelfinavir]", "values": [{"measurement": "ATR induced loss of ΔΨm, cytochrome c release, caspase 9, caspase 3, PARP cleavage and caspase 3 activation", "value": "inhibited"}]}
